Laboratory results published in the supplement of paper PMC4466236.
In all, about 33,000 sequences were measured (“E-score (dimensionless, -0.5 to 0.5)”: median about -0.058, highest 2% from about 0.35 on). The list shows a part of the results.

Tested on: MvaT
Assay: PBM 8-mer E-score (mean of HK and ME arrays) (E-score (dimensionless, -0.5 to 0.5)); higher = stronger relative binding preference; most listed sequences are background and not binding sites
How it was run: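 Full-length P. aeruginosa MvaT, with glutathione S-transferase fused to its N-terminus (cloned into pTH6838 by isothermal assembly), was tested by protein binding microarray using a previously described protocol. Two universal double-stranded 60-mer arrays (ME and HK) were used, each with a constant 25-mer primer region and a variable 35-mer region covering all 8-mers. The rank-based 8-mer E-score (-0.5 to 0.5) is the mean of the two arrays, parsed with a custom Python script.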

| Sequence | PBM 8-mer E-score |
| --- | --- |
| CGAAACCG | -0.166 |
| CAACTATC | 0.124 |
| GCCACAGA | -0.11 |
| AATGGGCA | -0.151 |
| CAACAAGG | -0.0563 |
| CTGTGCAC | -0.0759 |
| AAAAATGA | 0.169 |
| CAAAGGAC | -0.0682 |
| ATTTTTAA | 0.323 |
| CGATGGTA | -0.146 |
| ACGCGCCA | -0.192 |
| AGTCAAGC | -0.119 |
| GCAACACC | -0.193 |
| AATAACGG | 0.319 |
| GACGATGC | -0.228 |
| CCACCCAA | 0.000179 |
| AGCTACGG | -0.24 |
| TCGCGAGA | 0.0128 |
| AGAATTTA | 0.262 |
| TCGTTTAA | 0.252 |
| AATGATGA | 0.13 |
| CTGGGATA | -0.0515 |
| CCAGGGGA | -0.236 |
| CTTACCGA | -0.0946 |
| AAGCATGA | -0.118 |

| Sequence | PBM 8-mer E-score |
| --- | --- |
| TCGCGACA | -0.14 |
| TCGCTCAA | -0.037 |
| TCGCAAAA | 0.0907 |
| GGCGATAC | -0.146 |
| GATACGCA | -0.211 |
| GGCAAGAA | -0.156 |
| GGGGCACA | -0.0648 |
| GAGCAGGA | -0.212 |
| GTTCGCTA | -0.0375 |
| ATTCATGC | 0.0176 |
| ACCCTGAA | -0.163 |
| AGCAACGA | -0.24 |
| GATCAACC | -0.124 |
| TAAGAACA | 0.123 |
| ACACAGTG | -0.0714 |
| GTTCTTTA | 0.215 |
| AAGGGTGG | -0.125 |
| ATTGAGGA | 0.0686 |
| TCTAATAA | 0.332 |
| ACGTATGC | -0.154 |
| AGCCACCA | -0.0502 |
| ATATATAG | 0.468 |
| AGGCTTCA | -0.201 |
| ATGTTCCA | 0.0835 |
| CCTAGAAG | -0.263 |

| Sequence | PBM 8-mer E-score |
| --- | --- |
| CTGAATTC | 0.0246 |
| ACTCTGGA | -0.0765 |
| GCTACCAA | -0.0936 |
| GCCGCGCC | -0.218 |
| AGATAGTG | 0.0848 |
| ACTGGAGG | -0.186 |
| GCCTCGAA | -0.0962 |
| TAGGCCTA | -0.152 |
| GCGTTGCA | -0.143 |
| AAAGCCTG | -0.0913 |
| ATAGGGAC | -0.0932 |
| CTAAACCA | 0.162 |
| ATATCATC | 0.216 |
| ACTGCGCT | -0.0936 |
| TCGTACCA | 0.0456 |
| ACGGATTA | 0.208 |
| AATGTGAA | 0.198 |
| CCAGTCTC | -0.0808 |
| AACCTCAC | -0.0716 |
| CCACCACG | -0.234 |
| GCCAAGCC | -0.261 |
| ATTACAGA | 0.217 |
| AAGAAGTG | 0.0962 |
| ATACGTAC | 0.0574 |
| CGTTCATC | -0.232 |

| Sequence | PBM 8-mer E-score |
| --- | --- |
| CAAGGTAC | -0.151 |
| CATGTCTC | 0.00179 |
| GGTGGCAA | -0.164 |
| AGAGTTGG | -0.128 |
| CAACGTAA | 0.135 |
| ATAATTGC | 0.325 |
| CGATAAGA | 0.0173 |
| CGTCTGAG | -0.303 |
| CTACTGAA | -0.0994 |
| TACTTCAA | 0.303 |
| CGGGCAAG | -0.202 |
| GTCGGGAA | -0.158 |
| CCCCCGTA | -0.247 |
| CCTACCTC | -0.226 |
| CTATATTA | 0.454 |
| ATGACCCA | -0.0872 |
| CCCATAGC | -0.288 |
| CCAAATTC | 0.0865 |
| ATTGTAGG | 0.0643 |
| CCCTGGAG | -0.214 |
| AGGGGACA | -0.227 |
| AAGTGTAC | 0.0796 |
| GGTTGAAA | -0.0519 |
| GTGATTGA | -0.0771 |
| CGCAAACC | -0.0277 |

| Sequence | PBM 8-mer E-score |
| --- | --- |
| AGGAGTTC | -0.0442 |
| AACTTCAG | 0.158 |
| ACCTGCTG | -0.164 |
| AAGGAAGA | -0.104 |
| AAACCCGA | -0.0944 |
| AGGCATGC | -0.194 |
| CGCGAGAC | -0.168 |
| CCCATGTA | 0.0488 |
| TAGTGTAA | 0.277 |
| TATGCCCA | -0.013 |
| AAATGCAC | 0.0514 |
| ATCAAGTG | 0.0346 |
| GAGATAGA | -0.119 |
| TCCATGGA | -0.00256 |
| GGCCTCTA | -0.166 |
| CCATATTA | 0.353 |
| CATTGGAA | 0.0265 |
| ACCATCAG | -0.267 |
| ACTTCACC | 0.118 |
| AGCTTATA | 0.307 |
| CCCTGAGC | -0.354 |
| ACTATAGG | 0.061 |
| CGGGGGAC | -0.256 |
| CAAAGTAG | 0.0209 |
| AATCTCCA | -0.137 |

| Sequence | PBM 8-mer E-score |
| --- | --- |
| GAGCCCAC | -0.135 |
| CCTGAACA | -0.0362 |
| ACGGTGGA | -0.17 |
| CCTAAGTC | -0.0334 |
| AGTGAAAT | 0.14 |
| GACTTCTA | 0.0115 |
| AGGCAGAC | -0.265 |
| ACTCGACT | -0.137 |
| GGGCGTAA | -0.0897 |
| CTGGCCTC | -0.0945 |
| CCTCTAAG | -0.0409 |
| ACGCTTTC | -0.237 |
| CTGGCATC | -0.181 |
| AGGGCCTA | -0.21 |
| AATGTGCT | 0.00812 |
| TCCGGTCA | -0.221 |
| AATCCGCA | -0.00627 |
| AAGGTATC | -0.0527 |
| CTGGCGTA | -0.155 |
| CTATGGTC | -0.227 |
| ATCGGGTG | -0.109 |
| CTGCCCCA | -0.23 |
| ATACACGC | 0.117 |
| AACACAAT | 0.256 |
| ATTGTACG | 0.164 |

| Sequence | PBM 8-mer E-score |
| --- | --- |
| GTCCAGTA | -0.138 |
| GAAACTAA | 0.284 |
| GCTATGAA | 0.0436 |
| AAGGGCCA | -0.254 |
| CGCGCAAA | 0.146 |
| ACTCCTAA | 0.0405 |
| ACTGCGTA | -0.128 |
| ATAACATA | 0.359 |
| CGCCCGAG | -0.184 |
| CTGGGTAA | 0.119 |
| TCCACTAA | 0.149 |
| AGCGTCGA | -0.12 |
| CAAACAGC | -0.0107 |
| GGTTGGAC | -0.169 |
| CGACGGTC | -0.222 |
| AAGTGCTA | 0.0298 |
| AGCTTTCA | -0.141 |
| ACCCCGAT | 0.00518 |
| AATGGCCA | -0.0193 |
| GCTGCATA | -0.0612 |
| GATCATGA | -0.0896 |
| CTCATCAC | -0.181 |
| TGGCTACA | -0.143 |
| CAAACAAA | 0.0286 |
| AAGGGAGA | -0.206 |

| Sequence | PBM 8-mer E-score |
| --- | --- |
| CACCTTGC | -0.0983 |
| CACTACCG | -0.101 |
| CCGGCTGA | -0.25 |
| GGGGCGTA | -0.169 |
| CCAGCTCA | -0.0499 |
| ACTTTGTC | 0.0551 |
| ACCATTCA | 0.0275 |
| ACAGCCGC | -0.211 |
| CAACGCGG | -0.167 |
| ATTGACCG | -0.00731 |
| CCCAGATA | -0.0766 |
| ATCTTATA | 0.238 |
| ACAAGCCG | -0.202 |
| GAACACGA | -0.0165 |
| GGTTCAAC | -0.0691 |
| AAGATAGT | 0.197 |
| TCGACACA | -0.176 |
| ATAGAGTA | 0.152 |
| GGTGCGAA | -0.0873 |
| CACTACTG | 0.065 |
| AATAACAA | 0.38 |
| GAAGGCCA | -0.3 |
| CCAAGCCA | -0.218 |
| AAGAAAAG | 0.114 |
| TCGTACAA | 0.0784 |

| Sequence | PBM 8-mer E-score |
| --- | --- |
| TTGCCAAA | 0.161 |
| AACCCTGA | -0.198 |
| TACAAACA | 0.323 |
| CATGCCTA | -0.0489 |
| CCCTCGCC | -0.307 |
| ATCGATTG | 0.0285 |
| AACGCCAG | -0.15 |
| GCAAGGGC | -0.247 |
| CCGGCACC | -0.273 |
| CTTATGCC | 0.00469 |
| CACGCGCG | -0.19 |
| GTGGCAGA | -0.129 |
| ATGTGCCG | 0.0768 |
| ACAAGAAG | 0.0103 |
| ATAAGAGG | 0.0378 |
| CATCCCGG | -0.136 |
| ACCTGTAG | -0.13 |
| GAACATGA | 0.0574 |
| CCGCTTAC | -0.0199 |
